Test results taken from patent publication US20250026852A1 (Chugai, published 2025).

T1: soluble human IL-6R (human, UniProt P08887 20-357)
T1 construct: also called hsIL-6R; recombinant human IL-6R
T1 sequence: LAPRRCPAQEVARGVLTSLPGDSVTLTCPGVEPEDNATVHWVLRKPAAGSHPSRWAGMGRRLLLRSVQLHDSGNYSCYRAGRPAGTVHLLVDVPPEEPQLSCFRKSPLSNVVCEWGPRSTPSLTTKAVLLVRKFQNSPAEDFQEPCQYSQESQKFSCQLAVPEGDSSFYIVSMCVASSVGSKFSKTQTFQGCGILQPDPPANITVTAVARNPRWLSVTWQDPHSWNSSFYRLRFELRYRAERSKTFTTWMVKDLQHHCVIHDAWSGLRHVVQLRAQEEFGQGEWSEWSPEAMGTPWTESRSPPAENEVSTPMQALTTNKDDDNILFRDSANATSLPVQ


Molecular target: T1, soluble human IL-6R
Test: BLI (Octet), in the same way as in Example 3

binding result | Binder
binds | 20A11-G1m/VL1-40-lamL (other, IgG antibody-like molecule; VHH 20A11 in place of VH) heavy: EVQLVESGGGLVQPGGSLRLSCAASGSVFKINVMAWYRQAPGKGRELVAGIISGGSTSYADSVKGRFTISRDNAKNTLYLQMNSLRPEDTAVYYCAFITTESDYDLGRRYWGQGTLVTVSS[gap - human IgG1 constant region] light: QSVLTQPPSVSGAPGQRVTISCTGSSSNIGAGYDVHWYQQLPGTAPKLLIYGNSNRPSGVPDRFSGSKSGTSASLAITGLQAEDEADYYCQSYDNSLNAVVFGGGTKLTVLGQPKAAPSVTLFPPSSEELQANKATLVCLISDFYPGAVTVAWKADSSPVKAGVETTTPSKQSNNKYAASSYLSLTPEQWKSHRSYSCQVTHEGSTVEKTVAPTECS
binds | 20A11-G1m/VL3-21-lamL (other, IgG antibody-like molecule; VHH 20A11 in place of VH) heavy: EVQLVESGGGLVQPGGSLRLSCAASGSVFKINVMAWYRQAPGKGRELVAGIISGGSTSYADSVKGRFTISRDNAKNTLYLQMNSLRPEDTAVYYCAFITTESDYDLGRRYWGQGTLVTVSS[gap - human IgG1 constant region] light: SYVLTQPPSVSVAPGKTARITCGGNNIGSKSVHWYQQKPGQAPVLVIYYDSDRPSGIPERFSGSNSGNTATLTISRVEAGDEADYYCQAWDSSTDVVFGGGTKLTVLGQPKAAPSVTLFPPSSEELQANKATLVCLISDFYPGAVTVAWKADSSPVKAGVETTTPSKQSNNKYAASSYLSLTPEQWKSHRSYSCQVTHEGSTVEKTVAPTECS
binds | 20A11-G1m/VL2-14-lamL (other, IgG antibody-like molecule; VHH 20A11 in place of VH) heavy: EVQLVESGGGLVQPGGSLRLSCAASGSVFKINVMAWYRQAPGKGRELVAGIISGGSTSYADSVKGRFTISRDNAKNTLYLQMNSLRPEDTAVYYCAFITTESDYDLGRRYWGQGTLVTVSS[gap - human IgG1 constant region] light: QSALTQPASVSGSPGQSITISCTGTSSDVGGYNYVSWYQQHPGKAPKLMIYEVSNRPSGVSNRFSGSKSGNTASLTISGLQAEDEADYYCSSYRSGYTLVVFGGGTKLTVLGQPKAAPSVTLFPPSSEELQANKATLVCLISDFYPGAVTVAWKADSSPVKAGVETTTPSKQSNNKYAASSYLSLTPEQWKSHRSYSCQVTHEGSTVEKTVAPTECS
